The record followed here is PubChem BioAssay AID2202238 (Ras Initiative Chemistry Research Team, Frederick National …, 2025).

In the experiment the target is GTPase KRas (Homo sapiens) (UniProt P01116). The experiment can be described thus: Covalent labelling of cysteine mutants by fragments, read by mass spectrometry (AID 2202238). The settings on record: KRAS G12D cysteine mutants, disulfide tethering, MALDI-TOF labeling, stronger effect = higher value, fragment at 500 µM. Details: protein at 5 µM with 500 µM competing thiol for 1.5 h.

Where [1] appears, read: measured here: G75C mutant labeling.
Setting [2] is: measured here: H94C mutant labeling.
Where [3] appears, read: measured here: I36C mutant labeling.
Setting [4] is: measured here: L120C mutant labeling.
The mark [5] stands for this setting: measured here: M67C mutant labeling.
[6] abbreviates: measured here: M72C mutant labeling.
[7] abbreviates: measured here: N86C mutant labeling.
Setting [8] is: measured here: P121C mutant labeling.
Setting [9] is: measured here: S122C mutant labeling.
[10] abbreviates: measured here: S136C mutant labeling.
Setting [11] is: measured here: G60C mutant labeling.
[12] abbreviates: measured here: N26C mutant labeling.

The structures appear in SMILES notation. The list shows a part of the results. The main result of the screen is listed elsewhere. These columns were measured beside it and carry no call.

UniProt P01116, sequence (P01116 whole entry, looked up, the tested form may be a part): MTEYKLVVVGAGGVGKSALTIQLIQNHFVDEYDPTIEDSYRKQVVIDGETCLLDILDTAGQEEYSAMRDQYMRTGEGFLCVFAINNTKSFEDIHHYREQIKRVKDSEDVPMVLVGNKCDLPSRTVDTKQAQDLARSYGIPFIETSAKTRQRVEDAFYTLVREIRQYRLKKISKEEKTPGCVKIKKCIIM

The molecule `COc1ccnc(N2CCN(C(=O)CCS)CC2)n1` showed a percent labeling under setting [1] of 20.2%; a percent labeling under setting [2] of 36%; a percent labeling under setting [3] of 42.5%; a percent labeling under setting [4] of 32%; a percent labeling under setting [5] of 42.8%; a percent labeling under setting [6] of 33.1%. The percent labeling turned out to be 31% under setting [7], 33.7% under setting [8], 36.8% under setting [9] and 66% under setting [10].

The molecule `COc1ccc(-n2nc(C(=O)NCCS)cc2C)cc1` had a percent labeling under setting [11] of 41.3%; a percent labeling under setting [1] of 14.6%; a percent labeling under setting [2] of 38.4%; a percent labeling under setting [3] of 23.3%; a percent labeling under setting [4] of 32.3%; a percent labeling under setting [5] of 34.2%. In addition, the percent labeling turned out to be 27.6% under setting [6]; 43.3% under setting [12]; 21% under setting [7]; 26.5% under setting [8]; 25.4% under setting [9]; 43.4% under setting [10].

Take `O=C(NCCS)c1ccc(Cc2n[nH]c(=O)c3ccccc23)cc1F`: the percent labeling reads like this: under setting [11], 20.3%; under setting [1], 9.5%; under setting [2], 10.6%; under setting [3], 7.6%; under setting [4], 9.3%; under setting [5], 9.8%. The percent labeling is 39.7% under setting [6]; 24.6% under setting [12]; 8.3% under setting [7]; 7.4% under setting [8]; 3.9% under setting [9]; 17.1% under setting [10].

As to `Cc1nn(C2CCOCC2)cc1NC(=O)CCS`, the percent labeling under setting [1] came to 8%; the percent labeling under setting [2] was found to be 26.7%; the percent labeling under setting [3] was found to be 25.8%; the percent labeling under setting [4] was determined as 30%; the percent labeling under setting [5] was found to be 30.4%; the percent labeling under setting [6] came to 16.1%. Also, the percent labeling runs as follows: under setting [7], 11.3%; under setting [8], 30.2%; under setting [9], 34.4%; under setting [10], 47.8%.

For the molecule `Cc1cc(C)n2nc(CC(=O)NCCS)nc2n1`, the percent labeling by setting is: under setting [11], 22.9%; under setting [1], 10%; under setting [2], 24%; under setting [3], 20.3%; under setting [4], 53.9%; under setting [5], 26.6%. Also, the percent labeling by setting is: under setting [6], 15.8%; under setting [12], 31.5%; under setting [7], 21.2%; under setting [8], 28.4%; under setting [9], 30.5%; under setting [10], 39%.

In turn, `Cc1nc(C2CCN(C(=O)CCS)CC2)no1` returned a percent labeling under setting [1] of 11.5%; a percent labeling under setting [2] of 30.5%; a percent labeling under setting [3] of 32%; a percent labeling under setting [4] of 33%; a percent labeling under setting [5] of 30.8%; a percent labeling under setting [6] of 16.2%. In addition, the percent labeling runs as follows: under setting [7], 22.4%; under setting [8], 29.6%; under setting [9], 33%; under setting [10], 53.6%.

In the case of `O=C(NCCS)c1ccc2nnc(-c3ccccc3)n2c1`, the percent labeling turned out to be 38.3% under setting [11]; 19.1% under setting [1]; 28.1% under setting [2]; 33.2% under setting [3]; 24.6% under setting [4]; 32.6% under setting [5]. Besides, the percent labeling under setting [6] was 50.7%; the percent labeling under setting [12] was 45.3%; the percent labeling under setting [7] worked out at 17%; the percent labeling under setting [8] stood at 20%; the percent labeling under setting [9] amounted to 20%; the percent labeling under setting [10] is 53.3%.

In turn, `Cc1nn(C)c(C)c1CC(=O)N1CCC(C(=O)NCCS)CC1` showed a percent labeling under setting [11] of 22.7%; a percent labeling under setting [1] of 10.4%; a percent labeling under setting [2] of 30.3%; a percent labeling under setting [3] of 22%; a percent labeling under setting [4] of 22.5%; a percent labeling under setting [5] of 27%. Moreover, the percent labeling reads like this: under setting [6], 14.5%; under setting [12], 34.6%; under setting [7], 18.4%; under setting [8], 24.4%; under setting [9], 20.5%; under setting [10], 43.4%.

Consider `O=C(CCS)N1CCC(c2nc(-c3ccc(F)cc3)no2)(C(F)(F)F)C1` (configuration not stated), for which the percent labeling is, setting by setting: under setting [1], 7.1%; under setting [2], 20.5%; under setting [3], 8.7%; under setting [4], 7.7%; under setting [5], 8.2%; under setting [6], 25.2%. Moreover, the percent labeling under setting [7] amounted to 9.8%, the percent labeling under setting [8] is 15.8%, the percent labeling under setting [9] came to 5.5% and the percent labeling under setting [10] was found to be 16%.

`Cc1nc2c(cc(OCCNC(=O)CCS)c3ccsc32)s1`: the percent labeling is, setting by setting: under setting [1], 10.8%; under setting [2], 13%; under setting [3], 12.1%; under setting [4], 7.3%; under setting [5], 9.5%; under setting [6], 29.3%. This molecule also registered a percent labeling under setting [7] of 11.4%, a percent labeling under setting [8] of 7.5%, a percent labeling under setting [9] of 4.6% and a percent labeling under setting [10] of 9.5%.

`Cc1cccc(NCC2CCCN2C(=O)CCS)n1` (configuration not stated): the percent labeling came out at 15.1% under setting [1]; 44.4% under setting [2]; 43.9% under setting [3]; 29.7% under setting [4]; 51.4% under setting [5]; 33% under setting [6]. Further, the percent labeling runs as follows: under setting [7], 26.7%; under setting [8], 30.1%; under setting [9], 31.2%; under setting [10], 71%.

In the case of `O=C(NCCS)C1CCN(C(=O)c2ccccc2)C1` (configuration not stated), the percent labeling runs as follows: under setting [11], 37.3%; under setting [1], 13.5%; under setting [2], 33.9%; under setting [3], 37.5%; under setting [4], 44.1%; under setting [5], 57.9%. Further, the percent labeling is, setting by setting: under setting [6], 31.7%; under setting [12], 44.9%; under setting [7], 26.5%; under setting [8], 36.1%; under setting [9], 36.4%; under setting [10], 57.2%.

Take `Cc1ccc(Nc2nccc(C(F)(F)F)n2)cc1C(=O)NCCS`: the percent labeling reads like this: under setting [11], 16.9%; under setting [1], 7.1%; under setting [2], 6.7%; under setting [3], 5.4%; under setting [4], 7.4%; under setting [5], 4.9%. Moreover, the percent labeling is, setting by setting: under setting [6], 35%; under setting [12], 27.5%; under setting [7], 3.7%; under setting [8], 4.7%; under setting [9], 2.7%; under setting [10], 5.4%.

For the molecule `Cc1nc2cc(F)cc(C(=O)NCCS)c2nc1C`, the percent labeling turned out to be 21% under setting [11]; 11.5% under setting [1]; 28% under setting [2]; 23.5% under setting [3]; 19.7% under setting [4]; 29.9% under setting [5]. The same molecule gave a percent labeling under setting [6] of 32.8%; a percent labeling under setting [12] of 24.4%; a percent labeling under setting [7] of 10.8%; a percent labeling under setting [8] of 15%; a percent labeling under setting [9] of 14.1%; a percent labeling under setting [10] of 32.2%.

Consider `O=C(CCS)N1CCC(c2cc(CO)on2)CC1`, for which the percent labeling runs as follows: under setting [1], 12.4%; under setting [2], 29.8%; under setting [3], 32.9%; under setting [4], 31.8%; under setting [5], 36%; under setting [6], 20.2%. Moreover, the percent labeling was 20.5% under setting [7], 33.4% under setting [8], 39.7% under setting [9] and 53.4% under setting [10].

For the molecule `O=C(CCS)N1CCc2c(nc[nH]c2=O)C1`, the percent labeling runs as follows: under setting [1], 12.3%; under setting [2], 23.9%; under setting [3], 36.7%; under setting [4], 18.1%; under setting [5], 26.4%; under setting [6], 18.6%. In addition, the percent labeling is 26.9% under setting [7], 29.8% under setting [8], 58.1% under setting [9] and 55% under setting [10].

On to `Cc1cc(C)n(C2CN(C(=O)CCS)C2)n1`, for which the percent labeling was 11% under setting [1]; 30.3% under setting [2]; 36.7% under setting [3]; 19.4% under setting [4]; 36.6% under setting [5]; 20.8% under setting [6]. The percent labeling is 17.8% under setting [7], 31.3% under setting [8], 31.3% under setting [9] and 46.5% under setting [10].

Consider `O=C(NCCS)c1c(Cl)cnn1C1CCCC1`, for which the percent labeling by setting is: under setting [11], 38.6%; under setting [1], 19.4%; under setting [2], 23.8%; under setting [3], 18.4%; under setting [4], 21%; under setting [5], 21.4%. Moreover, the percent labeling under setting [6] was found to be 31.8%; the percent labeling under setting [12] stood at 30.8%; the percent labeling under setting [7] stood at 11.7%; the percent labeling under setting [8] was 17.1%; the percent labeling under setting [9] was 18.5%; the percent labeling under setting [10] is 35.3%.

On to `CC(C)CN(Cc1ccccn1)C(=O)CCS`, for which the percent labeling under setting [1] turned out to be 18.6%; the percent labeling under setting [2] was 40.6%; the percent labeling under setting [3] turned out to be 41.4%; the percent labeling under setting [4] was found to be 32.3%; the percent labeling under setting [5] was 43.7%; the percent labeling under setting [6] came to 38.3%. The percent labeling reads like this: under setting [7], 29.3%; under setting [8], 43.4%; under setting [9], 43.8%; under setting [10], 69%.

Regarding `Cc1nn(C)c(-n2cncn2)c1NC(=O)CCS`, the percent labeling worked out at 7.7% under setting [1]; 31.9% under setting [2]; 38.6% under setting [3]; 28.8% under setting [4]; 33% under setting [5]; 10.6% under setting [6]. The percent labeling was found to be 20.6% under setting [7], 37.8% under setting [8], 31.1% under setting [9] and 55% under setting [10].

In the case of `O=C(CCS)NCC(=O)N1CCN(c2ccccc2)CC1`, the percent labeling reads like this: under setting [1], 6.4%; under setting [2], 24.2%; under setting [3], 30.8%; under setting [4], 31.4%; under setting [5], 30.7%; under setting [6], 15.9%. In addition, the percent labeling by setting is: under setting [7], 10.5%; under setting [8], 26.2%; under setting [9], 20.2%; under setting [10], 33.9%.

In turn, `O=C(NCCS)c1ccc(Oc2ccc(F)cc2Br)nc1` yielded a percent labeling under setting [11] of 17.6%; a percent labeling under setting [1] of 13.1%; a percent labeling under setting [2] of 7.2%; a percent labeling under setting [3] of 4.6%; a percent labeling under setting [4] of 8.1%; a percent labeling under setting [5] of 7%. This molecule also showed a percent labeling under setting [6] of 26.2%; a percent labeling under setting [12] of 13.7%; a percent labeling under setting [7] of 4.4%; a percent labeling under setting [8] of 5.4%; a percent labeling under setting [9] of 3.5%; a percent labeling under setting [10] of 9.8%.

Regarding `O=C(NCCS)c1ccnc2nc(C3CCOCC3)[nH]c12`, the percent labeling was determined as 20.9% under setting [11]; 11% under setting [1]; 32% under setting [2]; 25.6% under setting [3]; 22% under setting [4]; 33.6% under setting [5]. Further, the percent labeling is, setting by setting: under setting [6], 25.3%; under setting [12], 42.8%; under setting [7], 14.9%; under setting [8], 16.4%; under setting [9], 16%; under setting [10], 41.2%.
